# According to PubChem BioAssay AID504832 (National Center for Advancing Translational Sciences (NCATS), 2011):
# Out of some 310,000 compounds screened, about 18,000 (5.8%) were called active. Inconclusive means that the source gave no clear call. Such entries were picked first, then a sample of the others. Calls follow the shape of the dose curve; as a rule, active = well fitted inhibition curve with a large enough effect; inconclusive = small, poorly fitted or top-dose-only effect, or another doubt; inactive = no such curve, though single readings can be large or run the other way. Potencies of inconclusive entries are left out as doubtful fits.
# Assay: Primary qHTS for delayed death inhibitors of the malarial parasite plastid, 48 hour incubation
# Conditions: P. falciparum luciferase growth in erythrocytes; series mostly up to 28.7 µM
# Outline: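 Luciferase-expressing parasites in RBCs, 2% Hct / 0.1% parasitemia final; RPMI 1640 + 0.5% Albumax; 37 C, 5% CO2, one generation; luminescence read-out, lower signal = inhibition.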
# Potency is read from the fitted curve at half-maximal effect; tags tell the direction and shape of the fitted curve.
row,SMILES,Potency
1,CCn1cc(CCC(=O)NCc2ccc(F)cc2)c2ccccc21,"inconclusive [inhibitor, full curve, poor fit]"
2,CS(=O)(=O)c1ccc(NC(=O)c2ccc3c(c2)S(=O)(=O)N=C2CCCCCN23)cc1,"inconclusive [inhibitor, single point]"
3,C/C(=N\NC(N)=S)c1ccc(-n2ccnc2)cc1,"inconclusive [inhibitor, single point]"
4,O=C(CNC(=O)C12CC3CC(CC(C3)C1)C2)OCc1ccc(F)cc1Cl,inactive
5,CC(C)C(NC(=O)c1ccccc1)C(=O)N1CCN(C/C=C/c2ccccc2)CC1 (stereo not given),"inconclusive [inhibitor, partial curve, poor fit]"
6,Cc1ccccc1-c1nc(CN2CCC(C(=O)NCCCN3CCOCC3)CC2)c(C)o1,"inconclusive [inhibitor, single point]"
7,Cc1ccc(C)c(N2N=C(C(=O)Nc3ccccc3N3CCCC3)CCC2=O)c1,"inconclusive [inhibitor, single point]"
8,O=C(NCc1ccccn1)c1ccccc1-c1ccccc1,inactive
9,CCOC(=O)c1cc(-c2ccccc2)sc1NC(=O)C(C)OC(=O)c1ccncc1 (stereo not given),inactive
10,OCCNc1nc(N2CCCCC2)nc2ccccc12,"inconclusive [inhibitor, single point]"
11,O=c1cc(Nc2ccc3c(c2)OCCO3)[nH]c(=O)n1C1CCCCC1,active: 2.08 µM
12,CCc1ccccc1N(CC(=O)NCC1CCCO1)C(=O)CCC(=O)Nc1nccs1 (stereo not given),inactive
13,COc1cc(NC(=O)COc2ccccc2)ccc1NC(=O)c1ccco1,inactive
14,CCN(CC)CCn1c(=N)n(CC(=O)c2ccc(C)cc2)c2ccccc21,active: 4.65 µM
15,CC(=O)N1N=C(c2cccs2)CC1c1cccs1 (stereo not given),inactive
16,O=C(c1cc(C(=O)N2CCOCC2)c2nc3ccccc3n2c1)c1cc(Cl)cc(Cl)c1O,"inconclusive [inhibitor, single point]"
17,CCCc1c(C(=O)N/N=C/c2ccc(OC)c(OCc3ccccc3)c2)nnn1-c1nonc1N,"inconclusive [inhibitor, single point]"
18,COc1ccccc1C(=O)COC(=O)CNS(=O)(=O)c1ccc(C)cc1,inactive
19,CN1CCN(S(=O)(=O)c2cccc(C(=O)N(Cc3nnc(-c4ccc(Cl)cc4)o3)C3CC3)c2)CC1,"inconclusive [inhibitor, single point]"
20,COc1ccc(C(=O)Nc2ccc(Cl)cc2C(=O)NCc2ccco2)cc1OC,active: 10.4 µM
21,COc1ccc(C(=O)N2CCC(CCC(=O)Nc3cccc(C)c3)CC2)cc1,inactive
22,O=C(NCc1ccco1)c1ccc2c(c1)CCO2,"inconclusive [inhibitor, full curve, poor fit]"
23,COc1cc2c(cc1NC(=O)C(C)NCc1ccccc1)oc1ccccc12 (stereo not given),"inconclusive [inhibitor, single point]"

row,SMILES,Potency
1,COc1cccc(C(=O)c2sc(NC(C)C)nc2N)c1,"inconclusive [inhibitor, partial curve, poor fit]"
2,C=CC(=O)NC1CC2CCC1(C)C2(C)C (stereo not given),"inconclusive [inhibitor, single point]"
3,COCCCNC(=O)Cn1c(=O)n(CCCCCC(=O)NCc2ccc3c(c2)OCO3)c(=O)c2sccc21,"inconclusive [inhibitor, single point]"
4,Cc1cccc(NC(=O)CC(C)S(=O)(=O)c2ccc3c(c2)NC(=O)CO3)c1C (stereo not given),"inconclusive [inhibitor, partial curve, poor fit]"
5,CCCCCCSc1cccc(-c2nc3ccc(C)cn3c2NCc2ccccc2)c1,"inconclusive [inhibitor, single point]"
6,CC(=O)c1cn(CCCOc2ccccc2)c2ccccc12,"inconclusive [inhibitor, partial curve, poor fit]"
7,Cc1cc(C(F)F)n2ncc(C(=O)NCc3ccc(F)cc3)c2n1,"inconclusive [inhibitor, partial curve, poor fit]"
8,CCCCn1c(-c2ccncc2)nc2c1c(=O)[nH]c(=O)n2CC(C)C,"inconclusive [inhibitor, full curve, poor fit]"
9,CC(C)NC(=O)NC(=O)CSc1nnc(COc2ccccc2Cl)o1,inactive
10,O=C(CSc1nc2c(c(=O)n1-c1ccc(Cl)cc1)SCC2)Nc1ccc2c(c1)OCCO2,"inconclusive [inhibitor, single point]"
11,CN(C)CCN(C(=O)c1cccc2ccccc12)c1nc2cc3c(cc2s1)OCO3,active: 9.28 µM
12,CCOC(=O)C1(Cc2cccc(F)c2)CCN(Cc2nc(CC)[nH]c2C)CC1,active: 3.29 µM
13,CCOc1ccc(C(C(=O)NC2CCCC2)N(CCCO)C(=O)c2ccc(-c3ccccc3)[nH]2)cc1 (stereo not given),"inconclusive [inhibitor, partial curve, poor fit]"
14,O=S(=O)(c1ccccc1F)N1CCN(c2nc(-c3cccnc3)nc3ccccc23)CC1,active: 11.7 µM
15,COc1cccc(OCCn2c(C)c(/C=N/n3cnnc3)c3ccccc32)c1,inactive
16,COc1ccccc1NS(=O)(=O)c1cccc(C(=O)NCC(c2ccco2)N(C)C)c1 (stereo not given),"inconclusive [inhibitor, single point]"
17,CN(CCC1CCOCC1)Cc1cn[nH]c1-c1ccc(-c2ccccc2)cc1,"inconclusive [inhibitor, partial curve, poor fit]"
18,O=C(O)CCCN=Cc1c(O)c2ccccc2oc1=O,inactive
19,COc1ccc(CN(C)C(=O)C(Cc2ccccc2)NC(=O)c2ccccc2)c(OC)c1 (stereo not given),active: 10.4 µM
20,COc1coc(C(O)C[N+](=O)[O-])cc1=O (stereo not given),inactive
21,O=C(Nc1ccc(Cl)cc1)C1CCN(C(=O)c2ccco2)CC1,"inconclusive [inhibitor, partial curve, poor fit]"
22,CC1=NN(c2ccccc2)C(=O)/C1=C\N(O)c1ccccc1,"inconclusive [inhibitor, single point]"
